Source: PubChem BioAssay AID463173 (ICCB-Longwood Screening Facility, Harvard Medical School, 2010)
About 1,700 (3.3%) of roughly 52,000 compounds were called active. No stated cut-off is given here; in the data, active means survival mostly below about 52% (no sharp cut-off); inactive means mostly above about 56%. Some of the results follow.

What follows are molecules tested on Wild type (assay: growth inhibition of S. aureus wild type versus tarO mutant, primary screen, teichoic acid synthesis inhibitors, RN4220, OD600 (AID 463173)). Details: S. aureus RN4220 wild type/DeltatarO growth, OD600, 18 h, hits give low values, screened at 18.75 µg/mL (by protocol).

| SMILES | survival |
| --- | --- |
| CCC(C(=O)NCc1ccccc1OC)n1nc(C)n2c(cc3occc32)c1=O (stereo unspecified) | inactive: 69% |
| Cc1ccc2c(=O)cc(C(=O)Nc3sc4c(c3C(=O)NCC3CCCO3)CCC4)oc2c1 (stereo unspecified) | inactive: 84% |
| COc1ccc(C(=O)Nc2ccc(N(C)Cc3ccccc3)c(C(=O)O)c2)cc1 | inactive: 73% |
| CCOC(=O)Cn1c(=O)n(CC2CCCO2)c2nc(-c3ccccc3)nc(C(N)=O)c21 (stereo unspecified) | inactive: 56% |
| Cc1cc(C)cc(NC(=O)N2CCC(CN3CCOCC3)CC2)c1 | inactive: 89% |
| CC(C)NC(=O)N1[C@H](c2cccs2)[C@@H](C)C(=O)[C@@H](C)[C@@H]1c1cccs1 | inactive: 77% |
| O=C(CN1CCCN(Cc2ccccc2F)S1(=O)=O)Nc1ccc(F)c(Cl)c1 | inactive: 74% |
| CCOC(=O)C1=C(CN2CCN(c3ccccc3OC)CC2)NC(=O)NC1c1ccccc1 (stereo unspecified) | inactive: 75% |
| Cc1ccc(CNCc2ccccc2Cl)s1 | inactive: 66% |
| O=C(CNCC1CCCCC1)Nc1cccc(F)c1 | inactive: 122% |
| COc1ccc(-c2nnc(SCC(=O)NCCC(C)C)nc2-c2ccc(OC)c(OC)c2)cc1OC | inactive: 71% |
| CCCCNC(=O)c1ccc2c(=O)n(Cc3ccc(OC)cc3)c(=O)[nH]c2c1 | inactive: 80% |
| COC(=O)c1cc2oc(C)cc2n1CC(=O)Nc1ccc(C(C)C)cc1 | inactive: 75% |
| CCc1cccc(C)c1NC(=O)Cn1nc(C)n2cccc2c1=O | inactive: 89% |
| CCOC(=O)C(C)Sc1ccc2nnc(CCNS(=O)(=O)c3ccc(C)cc3)n2n1 (stereo unspecified) | inactive: 83% |
| N#Cc1c(C(F)(F)F)cc(-c2cccs2)nc1SCc1ccc(F)cc1 | inactive: 120% |
| CC1Cc2ccccc2N1C(=O)CSc1nc2ccc(NC(=O)COc3ccccc3)cc2s1 (stereo unspecified) | inactive: 85% |
| CC1=C(C(=O)NCc2cccc(F)c2)C2(CCCCC2)OC1=O | active: 10% |
| CC1(c2ccc(Cl)cc2)NC(=O)CS1 (stereo unspecified) | inactive: 105% |
| Cc1ccccc1CSc1cn(CC(=O)N2CCCCC2)c2ccccc12 | inactive: 78% |
| CCOC(=O)c1c(C)oc2nc(C)nc(NCC3CCN(Cc4ccc(C)cc4)CC3)c12 | inactive: 77% |
| O=C(Nc1cccc(C(F)(F)F)c1)c1cnn(-c2cccc(F)c2)c1C1CCNCC1 | inactive: 88% |
| Cc1nn(C)cc1CN(C)C(=O)c1cc(-c2ccccc2)nc2ccc(Br)cc12 | inactive: 88% |
| COc1ccc(OCC(=O)N2CCc3ccccc3C2)cc1 | inactive: 106% |
| CC(C)(C)c1ccc(C(=O)NCCc2csc(-c3ccc(Cl)cc3)n2)cc1 | inactive: 83% |
| CC(=O)OC1COC(N2CCc3ccccc32)C(OC(C)=O)C1OC(C)=O (stereo unspecified) | inactive: 106% |
